# The other results are listed elsewhere or left out.
# Assays:
# Experiment in all cases: glycan array binding signal (z-score within array); higher = stronger binding
# Conditions in all cases: glycan notation: IUPAC condensed, linker removed
# [1] = target: Neu5Ac(a2-3)Gal(b1-3)GalNAc
# Summary of the method: (§1)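 The binding signal is a Z-score computed within each array and averaged over linkers. Arrays of the same protein sequence at different concentrations or buffers were also averaged together. Data originate from 3228 arrays in the Consortium for Functional Glycomics database, kept only where the protein sequence was available.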
# [2] = target: Neu5Ac(a2-3)Gal(b1-3)GalNAc(b1-3)Gal(a1-4)Gal(b1-4)Glc
# Summary of the method: as §1
# [3] = target: Neu5Ac(a2-3)Gal(b1-3)GalNAc(b1-4)[Neu5Ac(a2-3)]Gal(b1-4)Glc
# Summary of the method: as §1
# [4] = target: Neu5Ac(a2-3)Gal(b1-3)GalNAc(b1-4)[Neu5Ac(a2-8)Neu5Ac(a2-3)]Gal(b1-4)Glc
# Summary of the method: as §1
# [5] = target: Neu5Ac(a2-3)Gal(b1-3)GalNAc6S
# Summary of the method: as §1
# [6] = target: Neu5Ac(a2-3)Gal(b1-3)GlcNAc
# Summary of the method: as §1
# [7] = target: Neu5Ac(a2-3)Gal(b1-3)GlcNAc(b1-2)Man
# Summary of the method: as §1
# [8] = target: Neu5Ac(a2-3)Gal(b1-3)GlcNAc(b1-2)Man(a1-3)[GlcNAc(b1-4)][Neu5Ac(a2-3)Gal(b1-3)GlcNAc(b1-2)Man(a1-6)]Man(b1-4)GlcNAc(b1-4)GlcNAc
# Summary of the method: as §1
# [9] = target: Neu5Ac(a2-3)Gal(b1-3)GlcNAc(b1-2)Man(a1-3)[Neu5Ac(a2-3)Gal(b1-3)GlcNAc(b1-2)Man(a1-6)]Man(b1-4)GlcNAc(b1-4)GlcNAc
# Summary of the method: as §1
# [10] = target: Neu5Ac(a2-3)Gal(b1-3)GlcNAc(b1-3)Gal(b1-3)GlcNAc
# Summary of the method: as §1
# [11] = target: Neu5Ac(a2-3)Gal(b1-3)GlcNAc(b1-3)Gal(b1-4)GlcNAc
# Summary of the method: as §1
# [12] = target: Neu5Ac(a2-3)Gal(b1-3)GlcNAc(b1-3)GalNAc
# Summary of the method: as §1
# [13] = target: Neu5Ac(a2-3)Gal(b1-3)GlcNAc(b1-4)Gal(b1-4)Glc
# Summary of the method: as §1
# [14] = target: Neu5Ac(a2-3)Gal(b1-3)GlcNAc(b1-6)GalNAc
# Summary of the method: as §1
# [15] = target: Neu5Ac(a2-3)Gal(b1-3)GlcNAc6S
# Summary of the method: as §1
# [16] = target: Neu5Ac(a2-3)Gal(b1-3)[Fuc(a1-4)]GlcNAc
# Summary of the method: as §1
# [17] = target: Neu5Ac(a2-3)Gal(b1-3)[Fuc(a1-4)]GlcNAc(b1-3)Gal(b1-3)[Fuc(a1-4)]GlcNAc
# Summary of the method: as §1
# [18] = target: Neu5Ac(a2-3)Gal(b1-3)[Fuc(a1-4)]GlcNAc(b1-3)Gal(b1-4)[Fuc(a1-3)]GlcNAc
# Summary of the method: as §1
# [19] = target: Neu5Ac(a2-3)Gal(b1-3)[GlcNAc(b1-6)]GalNAc
# Summary of the method: as §1
# [20] = target: Neu5Ac(a2-3)Gal(b1-3)[Neu5Ac(a2-6)]GalNAc
# Summary of the method: as §1
# [21] = target: Neu5Ac(a2-3)Gal(b1-3)[Neu5Ac(a2-6)]GlcNAc(b1-3)[Fuc(a1-3)[Gal(b1-4)]GlcNAc(b1-6)]Gal(b1-4)Glc
# Summary of the method: as §1
# [22] = target: Neu5Ac(a2-3)Gal(b1-3)]Neu5Ac(a2-3)Gal(b1-4)]GlcNAc
# Summary of the method: as §1
# Neu5Ac(a2-3)Gal(b1-4)Glc = target: Neu5Ac(a2-3)Gal(b1-4)Glc
# Summary of the method: as §1
# [23] = target: Neu5Ac(a2-3)Gal(b1-4)GlcNAc
# Summary of the method: as §1
# [24] = target: Neu5Ac(a2-3)Gal(b1-4)GlcNAc(b1-2)Man
# Summary of the method: as §1
# [25] = target: Neu5Ac(a2-3)Gal(b1-4)GlcNAc(b1-2)Man(a1-3)[GlcNAc(b1-4)][Neu5Ac(a2-3)Gal(b1-4)GlcNAc(b1-2)Man(a1-6)]Man(b1-4)GlcNAc(b1-4)GlcNAc
# Summary of the method: as §1
# [26] = target: Neu5Ac(a2-3)Gal(b1-4)GlcNAc(b1-2)Man(a1-3)[Neu5Ac(a2-3)Gal(b1-4)GlcNAc(b1-2)Man(a1-6)]Man(b1-4)GlcNAc(b1-4)GlcNAc
# Summary of the method: as §1
# [27] = target: Neu5Ac(a2-3)Gal(b1-4)GlcNAc(b1-2)Man(a1-3)[Neu5Ac(a2-3)Gal(b1-4)GlcNAc(b1-2)Man(a1-6)]Man(b1-4)GlcNAc(b1-4)[Fuc(a1-6)]GlcNAc
# Summary of the method: as §1
# [28] = target: Neu5Ac(a2-3)Gal(b1-4)GlcNAc(b1-2)Man(a1-3)[Neu5Ac(a2-6)Gal(b1-4)GlcNAc(b1-2)Man(a1-6)]Man(b1-4)GlcNAc(b1-4)GlcNAc
# Summary of the method: as §1
# [29] = target: Neu5Ac(a2-3)Gal(b1-4)GlcNAc(b1-2)[Neu5Ac(a2-3)Gal(b1-4)GlcNAc(b1-4)]Man(a1-3)[GlcNAc(b1-4)][Neu5Ac(a2-3)Gal(b1-4)GlcNAc(b1-2)[Neu5Ac(a2-3)Gal(b1-4)GlcNAc(b1-6)]Man(a1-6)]Man(b1-4)GlcNAc(b1-4)GlcNAc
# Summary of the method: as §1
# [30] = target: Neu5Ac(a2-3)Gal(b1-4)GlcNAc(b1-2)[Neu5Ac(a2-3)Gal(b1-4)GlcNAc(b1-4)]Man(a1-3)[GlcNAc(b1-4)][Neu5Ac(a2-3)Gal(b1-4)GlcNAc(b1-4)Man(a1-6)]Man(b1-4)GlcNAc(b1-4)GlcNAc
# Summary of the method: as §1
# [31] = target: Neu5Ac(a2-3)Gal(b1-4)GlcNAc(b1-2)[Neu5Ac(a2-3)Gal(b1-4)GlcNAc(b1-6)]Man(a1-6)[Neu5Ac(a2-3)Gal(b1-4)GlcNAc(b1-2)Man(a1-3)]Man(b1-4)GlcNAc(b1-4)GlcNAc
# Summary of the method: as §1
# [32] = target: Neu5Ac(a2-3)Gal(b1-4)GlcNAc(b1-2)[Neu5Ac(a2-3)Gal(b1-4)GlcNAc(b1-6)]Man(a1-6)[Neu5Ac(a2-3)Gal(b1-4)GlcNAc(b1-2)Man(a1-3)][GlcNAc(b1-4)]Man(b1-4)GlcNAc(b1-4)GlcNAc
# Summary of the method: as §1
# [33] = target: Neu5Ac(a2-3)Gal(b1-4)GlcNAc(b1-3)Gal
# Summary of the method: as §1
# [34] = target: Neu5Ac(a2-3)Gal(b1-4)GlcNAc(b1-3)Gal(b1-3)GlcNAc
# Summary of the method: as §1
# [35] = target: Neu5Ac(a2-3)Gal(b1-4)GlcNAc(b1-3)Gal(b1-4)GlcNAc
# Summary of the method: as §1
# [36] = target: Neu5Ac(a2-3)Gal(b1-4)GlcNAc(b1-3)Gal(b1-4)GlcNAc(b1-2)Man(a1-3)[Neu5Ac(a2-3)Gal(b1-4)GlcNAc(b1-3)Gal(b1-4)GlcNAc(b1-2)Man(a1-6)]Man(b1-4)GlcNAc(b1-4)GlcNAc
# Summary of the method: as §1
binder,measurement,setting,value
SP16663B-bot-321-25-321 (Bacteroides ovatus) (protein) DDDDEVTMNSKFYLSTKVFPVDSYEASLSVILKDNSVVVNELQPNYRFVACATERLSKDVKITADSDDNLVSAYNKANDTEYNILPAENYSFTNKTVTIENGESVSGDSIKIELLNVGSLTTEGGYLLPVTISSIEGNNLDALSSNRGVVYLKIQNIHVNVESGQPAEGTLIADRSGWTVKVAPTTRGDAKNLIDGTNSDVARDGGAEYWLTVDIGKVQTLTGIRNKCYASSYSPTAVEVFTSSDGAKWKSIGAVTISKSGTQYIKFSKAVETRYLKYYVKQGPNTVSLTEFDLYAK,glycan array binding signal (z-score),[1],0.012
same,glycan array binding signal (z-score),[2],-0.024
same,glycan array binding signal (z-score),[3],-0.003
same,glycan array binding signal (z-score),[4],0.469
same,glycan array binding signal (z-score),[5],-0.373
same,glycan array binding signal (z-score),[6],-0.205
same,glycan array binding signal (z-score),[7],0.077
same,glycan array binding signal (z-score),[8],-0.319
same,glycan array binding signal (z-score),[9],-0.185
same,glycan array binding signal (z-score),[10],0.016
same,glycan array binding signal (z-score),[11],-0.225
same,glycan array binding signal (z-score),[12],-0.284
same,glycan array binding signal (z-score),[13],0.073
same,glycan array binding signal (z-score),[14],-0.885
same,glycan array binding signal (z-score),[15],-0.178
same,glycan array binding signal (z-score),[16],-0.272
same,glycan array binding signal (z-score),[17],-0.351
same,glycan array binding signal (z-score),[18],-0.039
same,glycan array binding signal (z-score),[19],-0.154
same,glycan array binding signal (z-score),[20],-0.601
same,glycan array binding signal (z-score),[21],0.435
same,glycan array binding signal (z-score),[22],-0.445
same,glycan array binding signal (z-score),Neu5Ac(a2-3)Gal(b1-4)Glc,0.578
same,glycan array binding signal (z-score),[23],-0.322
same,glycan array binding signal (z-score),[24],-0.489
same,glycan array binding signal (z-score),[25],0.033
same,glycan array binding signal (z-score),[26],0.131
same,glycan array binding signal (z-score),[27],0.957
same,glycan array binding signal (z-score),[28],-0.138
same,glycan array binding signal (z-score),[29],-0.092
same,glycan array binding signal (z-score),[30],-0.146
same,glycan array binding signal (z-score),[31],-0.278
same,glycan array binding signal (z-score),[32],0.354
same,glycan array binding signal (z-score),[33],-0.206
same,glycan array binding signal (z-score),[34],0.08
same,glycan array binding signal (z-score),[35],-0.56
same,glycan array binding signal (z-score),[36],-0.099

# Source: the supplement of paper PMC8728848
